From the supplement of paper PMC3334620
Whole data set: some 33,000 sequences, median “E-score (-0.5 to 0.5)” near -0.041, cut for the highest 2% near 0.37. Some of the results follow.

Each sequence was assayed against T1, Ecm22 (UniProt Q05958) (assay: PBM E-score (8-mer binding enrichment) (E-score (-0.5 to 0.5)); higher = stronger / more preferred TF binding; most listed sequences are background and not binding sites). Details: protein concentration: 200 nM; construct: GST-full length.
T1 sequence: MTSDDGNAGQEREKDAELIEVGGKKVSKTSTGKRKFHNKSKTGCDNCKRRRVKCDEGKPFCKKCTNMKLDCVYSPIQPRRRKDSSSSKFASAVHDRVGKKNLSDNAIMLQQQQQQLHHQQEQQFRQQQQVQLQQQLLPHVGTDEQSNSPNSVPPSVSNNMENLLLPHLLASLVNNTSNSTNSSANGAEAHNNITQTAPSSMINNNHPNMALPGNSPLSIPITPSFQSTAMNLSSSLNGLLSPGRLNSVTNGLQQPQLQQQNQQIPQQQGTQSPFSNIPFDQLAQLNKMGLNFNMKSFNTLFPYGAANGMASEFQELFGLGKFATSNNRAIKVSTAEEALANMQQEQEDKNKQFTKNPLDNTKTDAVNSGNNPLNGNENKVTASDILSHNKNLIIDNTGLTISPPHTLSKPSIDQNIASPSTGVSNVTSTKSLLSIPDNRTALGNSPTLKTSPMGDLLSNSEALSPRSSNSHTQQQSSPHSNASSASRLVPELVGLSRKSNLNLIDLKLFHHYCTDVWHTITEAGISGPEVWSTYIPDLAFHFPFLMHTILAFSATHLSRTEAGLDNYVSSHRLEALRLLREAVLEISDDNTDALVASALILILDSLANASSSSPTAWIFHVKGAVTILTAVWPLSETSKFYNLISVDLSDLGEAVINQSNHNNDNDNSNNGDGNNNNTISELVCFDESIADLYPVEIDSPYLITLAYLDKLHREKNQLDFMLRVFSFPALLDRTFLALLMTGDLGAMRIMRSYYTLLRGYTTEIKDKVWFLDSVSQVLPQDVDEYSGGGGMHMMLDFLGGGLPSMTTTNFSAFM
In short: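 Using PURExpress in vitro transcription/translation, GST-tagged yeast transcription factors were made in full-length or DNA-binding-domain form. These were applied at about 100-200 nM to double-stranded universal all-10-mer Agilent arrays, and bound protein was detected with fluorescent anti-GST. Scans were normalised with masliner before the Universal PBM Analysis Suite assigned E-scores to ungapped eight-base words pooled with their reverse complements.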

Sequence	PBM E-score
ATCCTTTG	0.00792
CCGCCGCG	0.0848
GATCGGCC	-0.0198
CACTTTTC	-0.13
GTATGCAC	0.0586
AAAATCCT	0.0832
ATGCCCGG	-0.118
CCTGGATA	-0.0636
CGTGTACA	0.058
CACTTTAA	0.0363
CCTAGACG	-0.0473
CTAATTTA	0.0682
CACTGCAG	-0.289
ATACCACG	0.157
AGATTCGC	0.141
ATGGCGTG	-0.0369
GAAAGCGC	0.0447
GAACCTTC	-0.126
GTAAAAGA	0.122
ACCAAAGT	-0.114
AACCAGTG	-0.216
CGAAGCAG	0.147

Sequence	PBM E-score
ACAGCTGG	-0.0911
TTCCTCAA	-0.223
TGAGCTCA	-0.0237
CACATGTG	-0.09
CATCAACA	-0.00088
AATGTCCG	0.127
AGACTGGA	-0.184
AGTTACTG	-0.00284
CCCTCAGG	-0.145
ACTGAAAT	-0.173
ATGATGTC	-0.0748
AGAAATGG	-0.113
CCTGGCTA	0.0196
CACAAGGC	-0.268
CAGGAGTC	-0.2
AACGTGGC	0.029
CGATCCGC	0.202
ACTCGGGA	0.0962
AGTATTAC	0.114
CGGTAAAA	0.228
GACCTGCC	-0.133
CCTTCCTC	-0.0948

Sequence	PBM E-score
CACTAACG	0.0843
GAATATTC	0.0131
GCGTGACC	-0.0417
CACAGAGA	-0.126
AAGCCCAA	-0.148
CAATCTAG	-0.0844
CAACCGGA	0.103
TGCAAACA	-0.115
ACTAGGCG	0.022
CGAATCGA	0.25
ATCCCGCG	0.115
CGTTGCTC	0.347
GTTGTAGA	0.134
ACGATACC	0.334
AAGCAGAT	-0.224
CGTGTCTC	0.159
ATGTCACC	-0.0358
CGTACACA	0.402
TGCGATAA	0.097
ATGTAGAA	-0.0578
AAATCGCC	-0.0324
CACAGTTA	-0.204

Sequence	PBM E-score
CAATCAAG	-0.0352
CGAAAAGA	0.193
GGGAGCTA	-0.137
CGTACGCC	0.3
CTCGTGGA	-0.0176
GAGCGTGA	-0.0567
ATAAGGCA	-0.0922
ATGAGTTG	-0.0973
GAAAGCCA	-0.233
AAAAATTA	0.013
CTGTCACA	-0.21
ATGCGTGC	0.0223
GAATGTCC	-0.0991
AAGGATCA	-0.146
TAGCTGGA	-0.166
AACTTTAA	-0.0181
ATGAAGAC	-0.064
CGCCAGCG	-0.143
ACATGATC	-0.104
TTGTGAAA	-0.162
